# Results reported in PubChem BioAssay AID1466 (National Center for Advancing Translational Sciences (NCATS), 2008).
# Screen size: about 200,000 compounds; about 10 (0.005%) were called active. This list was built around the results that the source calls inconclusive (neither active nor inactive); the mix of calls is not that of the screen. Calls follow the shape of the dose curve; as a rule, active = well fitted inhibition curve with a large enough effect; inconclusive = small, poorly fitted or top-dose-only effect, or effect the other way, or another doubt; inactive = no such curve, though single readings can be large or run the other way. Where the call is inconclusive, the potency comes from a doubtful curve fit.
# Target: Lysosomal alpha-glucosidase (Homo sapiens) (UniProt P10253)
# Test: qHTS Assay for Inhibitors of Human alpha-Glucosidase as a Potential Chaperone Treatment of Pompe Disease;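 as to activity change, negative = inhibition: plate controls were uninhibited enzyme wells for no effect and no-enzyme background for full effect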
# Conditions: purified human GAA, 4-MU-alpha-glucoside fluorescence; activity change, negative = inhibition: at 76.9 µM (top of the series) unless noted
# Text: NIH Chemical Genomics Center [NCGC] NIH Molecular Libraries Probe Production centers Network [MLPCN] MLPCN Grant: 1R03MH084841-01 Assay Submitter (PI): Wei Zheng NCGC Assay Overview: Alpha-glucosidase is responsible for hydrolysis of terminal, non-reducing 1,4-linked alpha-D-glucose residues with release of alpha-D-glucose. It is a lysosomal hydrolase that is required for the degradation of a small percentage (1-3%) of cellular glycogen in human. Deficiency of this enzyme results in glycogen-storage disease type II (GSDII), also referred to as Pompe disease, an autosomal recessive disorder. Structurally normal glycogen is accumulated in lysosomes and cytoplasm in affected patients, primarily in muscle tissues. Excessive glycogen storage within lysosomes may interrupt normal functioning of other organelles and leads to cellular injury. In turn, this leads to enlargement and dysfunction of the entire organ involved (eg, cardiomyopathy and muscle weakness). It has reported that the improper folding and trafficking of alpha-glucosidase resulting from the genetic mutations may account for a significant number of Pompe patients. […] We optimized this alpha-glucosidase assay in 1536-well plate format for identifying the novel small molecule inhibitors with the structures other than the sugar analogs in order to develop the new pharmacological chaperones.
# NCGC Assay Protocol Summary: This is a fluorogenic enzyme assay with 4-methylumbelliferyl-alpha-D-[…] as the substrate and human alpha-glucosidase as the enzyme preparation. Upon the hydrolysis of this fluorogenic substrate, the resulting product, 1. 4-methyllumbelliferone, can be excited at 365 nm and emits at 440 nm which can be detected by a standard fluorescence plate reader. Data were normalized to the controls for basal activity (without enzyme) and 100% activity (with enzyme). In the AC50 values were determined from concentration-response data modeled with the standard Hill equation. Assay buffer: 50 mM citric acid (titrated with potassium phosphate to pH 5.0), 0.005% Tween-20, pH 5.0. (pH 5.0 is an optimal condition for this enzyme assay) 1536-well assay protocol for the human alpha-glucosidase: (1) Add 2 ul/well of enzyme (4 nM final) (2) Add 23 nL compounds in DMSO solution. The final titration was 0.7 nM to 77 uM. (3) Add 1 ul of substrate (400 uM final) (4) Incubate at room temperature for 20 min. (5) Add 2 ul stop solution (1M NaOH and 1M Glycine mixture, pH 10) (6) Detect the assay plate in a ViewLux plate reader (PerkinElmer) with Ex=365 nm and Em=440nm. Keywords: Alpha-glucosidase, Pompe Disease, pharmacological chaperone, chaperone therapy, high throughput screening, alpha-glucosidase inhibitor, MLSMR, MLSCN, NIH Roadmap, qHTS and NCGC
# Potency is read from the fitted curve at half-maximal effect; tags tell the direction and shape of the fitted curve.
SMILES,"activity change, negative = inhibition",Potency
CCc1ccc(N2CC(C(=O)OCC(=O)NC3CCS(=O)(=O)C3)CC2=O)cc1 (centres undefined),inconclusive: -17.2% [inhibitor],–
O=C(O)C1CC(O)CN1c1nc(Cl)ccc1[N+](=O)[O-] (centres undefined),–,"inconclusive: 11.2 µM [inhibitor, single point]"
Cc1ccc(C)n1-n1c(C)nc2sc(-c3ccccc3)cc2c1=O,–,"inconclusive: 56.2 µM [inhibitor, single point]"
COc1ccccc1OCC(=O)Nc1ccc(-c2nnc(-c3ccco3)o2)cc1,inconclusive: 16.3% [activator],–
CCOC(=O)C1CCCN(c2ncnc3c2[nH]c2cccc(OC)c23)C1 (centres undefined),–,"inconclusive: 35.5 µM [activator, partial curve]"
COc1ccc(NC(=O)c2ccc(COc3ccc(C)cc3)o2)cc1,–,"inconclusive: 22.4 µM [inhibitor, single point]"
CC(C)NC(=S)N/N=C/c1c[nH]c2ccccc12,inactive: -0.565%,–
Cc1sc2ncnc(-n3cnc4ccccc43)c2c1C,–,"inconclusive: 0.398 µM [inhibitor, full curve]"
Cc1ccc(-n2cc(CN(C)Cc3nccn3C)c(-c3ccc(F)cc3)n2)cc1,–,"inconclusive: 12.6 µM [inhibitor, partial curve]"
COc1cccc(NC(=S)NNC(=O)CCn2cc([N+](=O)[O-])cn2)c1,inconclusive: 15% [activator],–
CCOC(=O)c1nnc(-c2ccccc2)nc1NCc1ccccc1,–,"inconclusive: 2.82 µM [inhibitor, partial curve]"
Cc1cc(C)cc(CC(Cc2nc3ccccc3[nH]2)c2nc3ccccc3[nH]2)c1 (centres undefined),inconclusive: -17.7% [inhibitor],–
CC1C=CCC2C(=O)N(c3ccccc3OC(=O)c3ccco3)C(=O)C12 (centres undefined),inconclusive: 18.4% [activator],–
CCOC(=O)c1c(C)c(C(=O)Nc2ccc3c(c2)OCCO3)c(C)n1CC,–,"inconclusive: 50.1 µM [inhibitor, single point]"
Cc1nc2c(sc3nc4c(cc32)COC(C)(C)C4)c(=O)o1,–,"inconclusive: 4.47 µM [activator, single point]"
Cc1nonc1CN(C)C(=O)c1ccc(OC2CCN(Cc3ccccn3)CC2)cc1,–,"inconclusive: 25.1 µM [inhibitor, single point]"
CCOc1ccc(NC(=O)NNC(=O)c2ccc(Cl)cc2Cl)cc1,inconclusive: 13.1% [activator],–
Oc1ccccc1-c1nc(NCC2CCCO2)c2ccccc2n1 (centres undefined),–,"inconclusive: 56.2 µM [inhibitor, single point]"
CCc1ccccc1S(=O)(=O)Cc1ccc(C(=O)N2CCN(c3ccccc3OC)CC2)o1,–,"inconclusive: 31.6 µM [inhibitor, single point]"
O=C(CSc1ccccc1)Nc1nnc(/C=C/c2ccccc2)s1,–,"inconclusive: 39.8 µM [activator, partial curve]"
COC(=O)C1=CN(CCCN2CCCC2=O)C=C(C(=O)OC)C1c1cccs1,–,"inconclusive: 39.8 µM [activator, partial curve]"
FC(F)(F)c1cccc(-c2nnc(-c3ccccc3)c(N3CCOCC3)n2)c1,–,"inconclusive: 0.178 µM [inhibitor, full curve, poor fit]"

SMILES,"activity change, negative = inhibition",Potency
Cc1nnc(SCC(=O)Nc2ccc3c4c(cccc24)CC3)n1C,–,"inconclusive: 3.55 µM [inhibitor, partial curve]"
COc1ccc(C2Nc3ccccc3C(=O)N2Cc2ccco2)cc1COc1ccc(NC(C)=O)cc1 (centres undefined),–,"inconclusive: 1.41 µM [inhibitor, full curve]"
O=C(c1ccco1)c1coc2c1cc(O)c1ccccc12,inactive: 8.08%,–
COc1cc(Cl)cc(/C=N/NC(N)=O)c1O,–,"inconclusive: 35.5 µM [activator, partial curve]"
O=C(CCSc1ccccc1)N1CCN(c2ccccc2F)CC1,inconclusive: 6.09% [activator],–
CC(C)CCNC(=O)Cn1c2c(c(-c3ccccc3Cl)cc1=O)CCC2,inconclusive: -16.6% [inhibitor] [at 15.4 µM],–
CN(C)/C=C/C(=O)c1cccc(Cl)c1,–,"inconclusive: 50.1 µM [inhibitor, partial curve, poor fit]"
COc1ccc(N2C(=O)C3CCCN3C2c2cccc(C)c2)cc1Cl (centres undefined),–,"inconclusive: 50.1 µM [inhibitor, single point]"
Fc1ccc(-n2c(-c3ccc4ccccc4n3)n[nH]c2=S)cc1,inconclusive: 17.8% [activator],–
COc1ccc(-c2n(CC(=O)OC3CC(C)CCC3C(C)C)c3ccccc3[n+]2C)cc1 (centres undefined),inconclusive: 16.9% [activator],–
CCc1ccccc1NC(=O)Nc1ccc2c(c1)OCO2,inconclusive: 13.8% [activator],–
CCN(CC)S(=O)(=O)c1cc([N+](=O)[O-])ccc1NNC(=O)Nc1ccc(Cl)c(Cl)c1,inconclusive: -15% [inhibitor],–
CCOC(=O)c1c(-c2ccccc2)csc1NC(=O)c1cccc(N2C(=O)CCC2=O)c1,–,"inconclusive: 39.8 µM [activator, single point]"
O=C(NCCCN1CCCC1=O)c1ccccc1NS(=O)(=O)c1ccc(F)cc1,–,"inconclusive: 39.8 µM [inhibitor, single point]"
CCCOC(=O)c1c(NC(=O)/C=C/c2cnn(C)c2C)sc(C(=O)OCC)c1C,–,"inconclusive: 56.2 µM [inhibitor, single point]"
CCn1nc(CC(=O)Nc2nnc(CC(=O)N3CCCCC3)s2)c2ccccc2c1=O,–,"inconclusive: 2.51 µM [inhibitor, partial curve, poor fit]"
CCN(CC)c1ccc(-c2nn3c(-c4cccnc4)nnc3s2)cc1,–,"inconclusive: 22.4 µM [activator, partial curve]"
COC(=O)C1=CN(Cc2cccs2)C=C(C(=O)OC)C1c1cccc(OC)c1OC,–,"inconclusive: 25.1 µM [activator, partial curve]"
S=C(NCc1ccc2c(c1)OCO2)NCc1ccc2c(c1)OCO2,–,"inconclusive: 5.62 µM [inhibitor, single point]"
COc1ccc(N2C(=O)/C(=C\c3ccco3)N=C2SCC(=O)NC(C)C)cc1Cl,–,"inconclusive: 39.8 µM [inhibitor, single point]"
Cn1c(=O)[nH]c(=O)c2c1nc(Br)n2CC(O)c1ccccc1 (centres undefined),–,"inconclusive: 56.2 µM [inhibitor, single point]"
CCOC(=O)c1c(C)n(C)c2cc(OCCN(CC)CC)ccc12,–,"inconclusive: 50.1 µM [inhibitor, single point]"

SMILES,"activity change, negative = inhibition",Potency
O=C(Cn1c(-c2ccccc2)noc1=O)N1CCC(Cc2ccccc2)CC1,inconclusive: 12.2% [activator],–
CCSc1n[nH]c2nc3c(c(=O)n12)C1(CCCC1)Cc1ccccc1-3,–,"inconclusive: 28.2 µM [activator, single point]"
CCCCOC(=O)Nc1nnc(/C=C/c2ccc(OC)cc2)s1,–,"inconclusive: 39.8 µM [activator, partial curve]"
CCOC(=O)c1cc(C#N)c(Oc2ccc(F)cc2)nc1-c1ccccc1,inconclusive: -15.8% [inhibitor],–
C#CCNC(=O)C1CCN(c2cc(C)nc(-c3ccccc3)n2)CC1,inconclusive: 7.94% [activator],–
CC1=NOC(=O)/C1=C\c1ccc(-c2ccc(Cl)c(C(=O)O)c2)o1,–,"inconclusive: 14.1 µM [inhibitor, partial curve, poor fit]"
Cc1ccc(-c2nnn(CC(=O)N(CCO)C(C(=O)NC3CCCC3)c3ccc(F)cc3)n2)o1 (centres undefined),inconclusive: 18% [activator],–
CCOc1cc(/C=C2\NC(=S)N(c3c(C)n(C)n(-c4ccccc4)c3=O)C2=O)ccc1O,–,"inconclusive: 28.2 µM [inhibitor, single point]"
COc1ccc(Cl)cc1NC(=O)CCNC(=O)OCc1ccccc1,inconclusive: 15.2% [activator],–
CC(=O)N(CCC(c1ccco1)C(C)C)Cc1ccc(OC(C)C)cc1 (centres undefined),inconclusive: -18.6% [inhibitor],–
Cc1cc(C)n(CC(=O)N2c3ccccc3Sc3ccc(C(F)(F)F)cc32)n1,–,"inconclusive: 22.4 µM [inhibitor, single point]"
Cc1cc(C(=O)CSc2nc(N)cc(=O)[nH]2)c(C)n1-c1cccc(F)c1,–,"inconclusive: 50.1 µM [inhibitor, single point]"
CCCCNC(=O)N1CCN(c2ccccc2OCC)CC1,–,"inconclusive: 50.1 µM [inhibitor, single point]"
CCn1cc(C=O)c2cc(S(=O)(=O)N3CCOCC3)ccc21,–,"inconclusive: 0.708 µM [inhibitor, partial curve, poor fit]"
Cc1cc(N2CCC(C)CC2)nc2ccc(N3C(=O)CCC3=O)cc12,–,"inconclusive: 31.6 µM [activator, partial curve]"
COc1cc(C2/C(=C(/O)c3ccccc3)C(=O)C(=O)N2c2ccccn2)ccc1O (centres undefined),inconclusive: 19.3% [activator],–
COc1ccc(CN(C)C(=O)c2cnc(OC)cc2C(F)(F)F)c(OC)c1,–,"inconclusive: 31.6 µM [inhibitor, partial curve, poor fit]"
COc1ccc(C(=O)Nc2ccc(C)cn2)c(OC)c1,–,"inconclusive: 35.5 µM [inhibitor, partial curve, poor fit]"
Cc1cccc(C)c1OCc1n[nH]c(=S)n1-c1ccccc1,–,"inconclusive: 12.6 µM [inhibitor, partial curve]"
CCc1cccc(CC)c1NC(=S)NCCc1ccc(O)c(O)c1,inactive: 6.65%,–
